Experimental data taken from patent US11773160 (ANAVEON, dated 2023).

Experiments:
[1] = biological target: T1, trimeric IL-2 receptor on HEK-Blue IL-2 reporter cells (UniProt P01589 22-272; P14784 27-551; P31785 23-369, limits assumed); assay: cell-based or functional assay
T1 sequence (looked up) 1: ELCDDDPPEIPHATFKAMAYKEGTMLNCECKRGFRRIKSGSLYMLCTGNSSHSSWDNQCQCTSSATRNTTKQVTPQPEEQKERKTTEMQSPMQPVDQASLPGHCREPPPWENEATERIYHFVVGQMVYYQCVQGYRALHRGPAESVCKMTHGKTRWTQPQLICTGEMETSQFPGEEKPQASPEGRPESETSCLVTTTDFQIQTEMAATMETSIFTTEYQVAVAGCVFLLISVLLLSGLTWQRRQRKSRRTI
T1 sequence (looked up) 2: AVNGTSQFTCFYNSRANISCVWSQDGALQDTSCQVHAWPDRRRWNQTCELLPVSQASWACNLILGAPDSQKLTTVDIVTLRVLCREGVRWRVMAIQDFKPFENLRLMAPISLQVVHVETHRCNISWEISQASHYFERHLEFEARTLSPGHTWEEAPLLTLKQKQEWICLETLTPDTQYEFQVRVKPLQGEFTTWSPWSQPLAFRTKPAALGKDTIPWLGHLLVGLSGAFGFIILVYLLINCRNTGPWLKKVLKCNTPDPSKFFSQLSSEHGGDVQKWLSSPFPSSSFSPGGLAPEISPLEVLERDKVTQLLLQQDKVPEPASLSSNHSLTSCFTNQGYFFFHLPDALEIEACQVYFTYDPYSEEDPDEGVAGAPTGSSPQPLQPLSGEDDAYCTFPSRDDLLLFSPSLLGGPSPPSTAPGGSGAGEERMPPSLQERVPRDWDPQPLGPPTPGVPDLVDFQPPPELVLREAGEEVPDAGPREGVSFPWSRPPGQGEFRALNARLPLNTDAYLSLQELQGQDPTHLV
T1 sequence (looked up) 3: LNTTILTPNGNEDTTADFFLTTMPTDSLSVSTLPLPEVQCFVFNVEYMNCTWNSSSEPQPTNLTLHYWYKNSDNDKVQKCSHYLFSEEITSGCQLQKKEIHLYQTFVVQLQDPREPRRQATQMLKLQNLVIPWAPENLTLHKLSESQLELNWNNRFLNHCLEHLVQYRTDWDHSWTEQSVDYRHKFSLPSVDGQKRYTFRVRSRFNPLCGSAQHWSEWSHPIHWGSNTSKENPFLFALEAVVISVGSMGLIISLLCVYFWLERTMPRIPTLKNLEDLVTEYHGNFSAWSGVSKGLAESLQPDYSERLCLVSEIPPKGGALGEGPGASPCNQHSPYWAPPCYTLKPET

[2] = biological target: T2, IL-2R on murine splenocytes (C57BL/6); assay: cell-based or functional assay
T2 sequence (P01590 whole entry, looked up): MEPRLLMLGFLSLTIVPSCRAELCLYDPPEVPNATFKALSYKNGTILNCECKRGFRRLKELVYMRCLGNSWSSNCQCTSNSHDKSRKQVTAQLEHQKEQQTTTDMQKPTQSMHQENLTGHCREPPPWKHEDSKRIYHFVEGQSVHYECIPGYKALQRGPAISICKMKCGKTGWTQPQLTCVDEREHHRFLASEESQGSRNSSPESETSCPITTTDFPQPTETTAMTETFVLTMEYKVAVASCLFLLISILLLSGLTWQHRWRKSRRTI
T2 sequence (P16297 whole entry, looked up): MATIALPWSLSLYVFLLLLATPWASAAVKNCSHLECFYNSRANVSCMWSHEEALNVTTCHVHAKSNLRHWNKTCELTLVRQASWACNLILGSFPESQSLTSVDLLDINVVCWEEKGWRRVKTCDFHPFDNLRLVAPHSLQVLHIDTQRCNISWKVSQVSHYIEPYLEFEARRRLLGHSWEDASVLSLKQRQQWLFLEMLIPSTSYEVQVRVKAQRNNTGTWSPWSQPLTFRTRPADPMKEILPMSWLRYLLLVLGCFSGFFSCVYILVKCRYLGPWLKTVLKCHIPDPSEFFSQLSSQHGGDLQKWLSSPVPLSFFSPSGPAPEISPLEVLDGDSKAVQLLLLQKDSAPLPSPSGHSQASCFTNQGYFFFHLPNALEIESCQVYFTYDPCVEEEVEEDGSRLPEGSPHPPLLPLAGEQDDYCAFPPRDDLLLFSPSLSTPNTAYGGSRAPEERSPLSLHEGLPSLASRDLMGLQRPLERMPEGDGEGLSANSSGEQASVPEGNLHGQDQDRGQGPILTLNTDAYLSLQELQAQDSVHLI
T2 sequence (P34902 whole entry, looked up): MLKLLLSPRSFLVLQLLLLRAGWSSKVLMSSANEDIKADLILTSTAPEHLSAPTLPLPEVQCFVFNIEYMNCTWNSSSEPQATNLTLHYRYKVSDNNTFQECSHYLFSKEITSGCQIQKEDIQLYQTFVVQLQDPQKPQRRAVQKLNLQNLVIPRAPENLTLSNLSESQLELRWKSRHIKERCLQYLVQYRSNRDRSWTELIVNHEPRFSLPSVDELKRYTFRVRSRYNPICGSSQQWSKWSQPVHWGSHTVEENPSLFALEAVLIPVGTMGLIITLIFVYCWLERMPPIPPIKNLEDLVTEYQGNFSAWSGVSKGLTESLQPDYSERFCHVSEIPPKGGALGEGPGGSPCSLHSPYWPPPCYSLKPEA

[3] = biological target: T3, monoclonal anti-human IL-2 antibody 5344 (BD, 555051); assay: sandwich ELISA, 5344 coated, fusion protein titrated, anti-human IgG-Peroxidase
T3 construct: Coated capture antibody
Protocol: The antibody-IL-2 fusion proteins were tested on a sandwich ELISA, to assess the correct folding of the IL-2 portion. […] The obtained signals (Absorbance 450-570 nm) were plotted as function of antibody-IL-2 fusion protein concentration (as log value). The $EC50$ values were interpolated fitting the data with GraphPad Prism 8 (Table 6).

[4] = biological target: monoclonal anti-human IL-2 antibody Nara1; assay: ELISA, Nara1 coated, fusion protein titrated, anti-human IgG-Peroxidase; lowest concentration with signal at or above the cut point

B3: FJC828 (other)
heavy: EVQLVQSGAEVKKPGESLKISCKGSGYAFTNYLIEWVRQMPGKGLEWMGVINPGSGGTNYNEKFKGQVTISADKSISTAYLQWSSLKASDTAMYYCARWRGEGYYAYFDVWGQGTTVTVSSASTKGPSVFPLAPSSKSTSGGTAALGCLVKDYFPEPVTVSWNSGALTSGVHTFPAVLQSSGLYSLSSVVTVPSSSLGTQTYICNVNHKPSNTKVDKRV[omitted - human IgG1 Fc with changes]
light: AIRLTQSPSSFSASTGDRVTITCKASQSVDYGGGGNFHLRPRDLISNINVIVLELKGSETTFMCEYADETATIVEFLNRWITFSQSIISTLTPTSSSTKKTQLQLEHLLLDLQMILNGINNYKNPKLTRMLTFKFYMPKKATELKHLQCLEEELKPLEEVLNLAQSKGGGGSDSYMNWYQQKPGKAPKLLIYAASNLESGVPSRFSGSGSGTDFTLTISSLQSEDFATYYCQQSNEDPYTFGGGTKVEIKRTVAAPSVFIFPPSDEQLKSGTASVVCLLNNFYPREAKVQWKVDNALQSGNSQESVTEQDSKDSTYSLSSTLTLSKADYEKHKVYACEVTHQGLSSPVTKSFNRGEC
notes: also called IL-2 fusion protein to antibody A, linker 1 4 AA, linker 2 5 AA
EC50 (M), SEAP of HEK-Blue IL-2 reporter cells [1]: 3.16e-12 M
EC50 CD8 cells (nM), pSTAT5 MFI [2]: 5.8 nM
EC50 NK cells (nM), pSTAT5 MFI [2]: 1.9 nM
EC50 Treg cells (nM), pSTAT5 MFI [2]: 8.4 nM
EC50 [3]: 0.28 nM
Lowest concentration (nM) OD450-570 ≥ CP [4]: 2.5 nM

B4: QTY065 (other)
heavy: EVQLVQSGAEVKKPGESLKISCKGSGYAFTNYLIEWVRQMPGKGLEWMGVINPGSGGTNYNEKFKGQVTISADKSISTAYLQWSSLKASDTAMYYCARWRGEGYYAYFDVWGQGTTVTVSSASTKGPSVFPLAPSSKSTSGGTAALGCLVKDYFPEPVTVSWNSGALTSGVHTFPAVLQSSGLYSLSSVVTVPSSSLGTQTYICNVNHKPSNTKVDKRV[omitted - human IgG1 Fc with changes]
light: AIRLTQSPSSFSASTGDRVTITCKASQSVDYGGGNFHLRPRDLISNINVIVLELKGSETTFMCEYADETATIVEFLNRWITFSQSIISTLTPTSSSTKKTQLQLEHLLLDLQMILNGINNYKNPKLTRMLTFKFYMPKKATELKHLQCLEEELKPLEEVLNLAQSKGGGGDSYMNWYQQKPGKAPKLLIYAASNLESGVPSRFSGSGSGTDFTLTISSLQSEDFATYYCQQSNEDPYTFGGGTKVEIKRTVAAPSVFIFPPSDEQLKSGTASVVCLLNNFYPREAKVQWKVDNALQSGNSQESVTEQDSKDSTYSLSSTLTLSKADYEKHKVYACEVTHQGLSSPVTKSFNRGEC
notes: also called IL-2 fusion protein to antibody A, linker 1 3 AA, linker 2 4 AA
EC50 (M), SEAP of HEK-Blue IL-2 reporter cells [1]: 3.22e-12 M
EC50 CD8 cells (nM), pSTAT5 MFI [2]: 13.9 nM
EC50 NK cells (nM), pSTAT5 MFI [2]: 2 nM
EC50 Treg cells (nM), pSTAT5 MFI [2]: 8.3 nM
EC50 [3]: 0.14 nM
Lowest concentration (nM) OD450-570 ≥ CP [4]: 22.5 nM

The remaining lines, values ahead:

EC50 (M), SEAP of HEK-Blue IL-2 reporter cells [1]: 3.59e-12 M
EC50 CD8 cells (nM), pSTAT5 MFI [2]: 15.7 nM
EC50 NK cells (nM), pSTAT5 MFI [2]: 5.2 nM
EC50 Treg cells (nM), pSTAT5 MFI [2]: 22 nM
EC50 [3]: 0.11 nM
Lowest concentration (nM) OD450-570 ≥ CP [4]: 7.5 nM
B1: EAD406 (other)
heavy: EVQLVQSGAEVKKPGESLKISCKGSGYAFTNYLIEWVRQMPGKGLEWMGVINPGSGGTNYNEKFKGQVTISADKSISTAYLQWSSLKASDTAMYYCARWRGEGYYAYFDVWGQGTTVTVSSASTKGPSVFPLAPSSKSTSGGTAALGCLVKDYFPEPVTVSWNSGALTSGVHTFPAVLQSSGLYSLSSVVTVPSSSLGTQTYICNVNHKPSNTKVDKRV[omitted - human IgG1 Fc with changes]
light: AIRLTQSPSSFSASTGDRVTITCKASQSVDYNFHLRPRDLISNINVIVLELKGSETTFMCEYADETATIVEFLNRWITFSQSIISTLTPTSSSTKKTQLQLEHLLLDLQMILNGINNYKNPKLTRMLTFKFYMPKKATELKHLQCLEEELKPLEEVLNLAQSKGDSYMNWYQQKPGKAPKLLIYAASNLESGVPSRFSGSGSGTDFTLTISSLQSEDFATYYCQQSNEDPYTFGGGTKVEIKRTVAAPSVFIFPPSDEQLKSGTASVVCLLNNFYPREAKVQWKVDNALQSGNSQESVTEQDSKDSTYSLSSTLTLSKADYEKHKVYACEVTHQGLSSPVTKSFNRGEC
notes: the light chain entry holds VL-linker 1-IL2-linker 2-VL-CL; also called IL-2 fusion protein to antibody A, linker 1 0 AA, linker 2 1 AA

EC50 (M), SEAP of HEK-Blue IL-2 reporter cells [1]: 3.03e-12 M
EC50 CD8 cells (nM), pSTAT5 MFI [2]: 8 nM
EC50 NK cells (nM), pSTAT5 MFI [2]: 2.7 nM
EC50 Treg cells (nM), pSTAT5 MFI [2]: 10.6 nM
EC50 [3]: 0.14 nM
Lowest concentration (nM) OD450-570 ≥ CP [4]: 2.5 nM
B2: XFO227 (other)
heavy: EVQLVQSGAEVKKPGESLKISCKGSGYAFTNYLIEWVRQMPGKGLEWMGVINPGSGGTNYNEKFKGQVTISADKSISTAYLQWSSLKASDTAMYYCARWRGEGYYAYFDVWGQGTTVTVSSASTKGPSVFPLAPSSKSTSGGTAALGCLVKDYFPEPVTVSWNSGALTSGVHTFPAVLQSSGLYSLSSVVTVPSSSLGTQTYICNVNHKPSNTKVDKRV[omitted - human IgG1 Fc with changes]
light: AIRLTQSPSSFSASTGDRVTITCKASQSVDYGGNFHLRPRDLISNINVIVLELKGSETTFMCEYADETATIVEFLNRWITFSQSIISTLTPTSSSTKKTQLQLEHLLLDLQMILNGINNYKNPKLTRMLTFKFYMPKKATELKHLQCLEEELKPLEEVLNLAQSKGGGDSYMNWYQQKPGKAPKLLIYAASNLESGVPSRFSGSGSGTDFTLTISSLQSEDFATYYCQQSNEDPYTFGGGTKVEIKRTVAAPSVFIFPPSDEQLKSGTASVVCLLNNFYPREAKVQWKVDNALQSGNSQESVTEQDSKDSTYSLSSTLTLSKADYEKHKVYACEVTHQGLSSPVTKSFNRGEC
notes: also called IL-2 fusion protein to antibody A, linker 1 2 AA, linker 2 3 AA

One block for each binder: values may come before it.
